Experimental data reported in PubChem BioAssay AID1159614 (National Center for Advancing Translational Sciences (NCATS), 2016).
Among all 45,000 compounds or so, about 65 (0.1%) were called active. The call rests on the fitted dose curve; in most records, active means well fitted activation curve with a large enough effect; inconclusive means small, poorly fitted or top-dose-only effect; inactive means no such curve, though single readings can be large or run the other way. Some of the results follow.

biological target: Galactocerebrosidase (Homo sapiens) (UniProt P54803); test: A Novel Cell-Based Assay to Identify Small Molecules for B -Galactocerebrosidase; conditions: 145M-Twi-hGALC-G270D cells (Twitcher mouse brain line with human GALC G270D), HMU-beta-Gal fluorescence, 48 h; series mostly up to 57.5 µM; activation: at the top concentration; further: 0% is about no effect; nearly all actives have a fitted effect of over 65% in size
Chain of UniProt P54803 (P54803 whole entry, looked up): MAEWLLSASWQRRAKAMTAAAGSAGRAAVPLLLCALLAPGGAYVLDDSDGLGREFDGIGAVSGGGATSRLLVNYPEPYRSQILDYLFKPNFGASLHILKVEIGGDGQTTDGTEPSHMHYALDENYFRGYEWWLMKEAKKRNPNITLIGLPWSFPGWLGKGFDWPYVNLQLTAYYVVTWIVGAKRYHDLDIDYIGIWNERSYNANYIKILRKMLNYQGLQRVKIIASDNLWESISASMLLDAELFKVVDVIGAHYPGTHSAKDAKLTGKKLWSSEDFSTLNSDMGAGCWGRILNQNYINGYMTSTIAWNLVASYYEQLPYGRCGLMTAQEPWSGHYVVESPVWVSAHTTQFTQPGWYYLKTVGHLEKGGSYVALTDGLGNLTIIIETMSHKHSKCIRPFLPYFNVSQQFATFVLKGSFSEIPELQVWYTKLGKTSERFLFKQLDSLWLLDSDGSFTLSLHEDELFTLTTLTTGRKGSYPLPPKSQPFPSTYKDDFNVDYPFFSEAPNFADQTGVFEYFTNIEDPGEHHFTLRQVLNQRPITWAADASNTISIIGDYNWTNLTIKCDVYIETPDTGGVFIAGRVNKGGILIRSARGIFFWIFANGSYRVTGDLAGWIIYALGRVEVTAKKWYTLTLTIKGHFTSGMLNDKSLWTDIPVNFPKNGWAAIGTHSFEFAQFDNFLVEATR
How it was run: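 Fluorescence readout: HMU-β-gal cleavage by mutant GALC (0.1 mM final, citrate/phosphate pH 5.2 with 1 mg/mL taurocholate), stopped with carbonate/bicarbonate plus Triton X-100. Cells: murine Twitcher 145M-Twi expressing human G270D GALC; qHTS for activators.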

activation, inactive:
O=S(=O)(c1ccccc1)c1nnn2c1nc(NCc1cccs1)c1sccc12 -12.6%
CCCCN(C)c1nnc(NC(=O)Nc2cccc(C(C)=O)c2)s1 2.3%
Cc1ccc(NC2=CC(c3ccccc3F)N(c3ccc(C)cc3)C2=O)cc1 (stereo not given) -25.8%
COC(=O)c1c(NC(=O)c2cc3nc(-c4ccc(OC)cc4)cc(C(F)(F)F)n3n2)sc2c1CCCC2 -17.6%
COc1ccc(NC(=O)Cn2c(=O)n(-c3ccccc3)c(=O)c3c4c(sc32)CCCC4)cc1 -13.6%
Cc1cc(C)cc(Nc2cc(-c3ccccc3)nc(C)n2)c1 -4.75%
COc1ccc(-c2cc(C(=O)OCC(=O)c3ccc(C)cc3)c3cccc(Cl)c3n2)cc1 -6.56%
Cc1ccccc1-c1ncnn1-c1sc2c(c1C#N)CCCCC2 -14.1%
CC(C)Cn1c(=O)c2ccccc2n2c(CCC(=O)NCc3ccccc3Cl)nnc12 -14.9%
CCOc1ccccc1NC(=O)C(Cc1ccccc1)NS(=O)(=O)c1ccc2c(c1)oc(=O)n2C (stereo not given) -19.7%
COc1ccc(-c2cc3nc(C)c(CCC(=O)N4CCN(c5cccc(Cl)c5)CC4)c(C)n3n2)c(OC)c1 -28.7%
O=C(NCc1cccs1)c1ccc2c(c1)N(Cc1ccccc1Cl)C(=O)c1ccccc1S2 -9.43%
O=C(CN1C=NS(=O)(=O)c2ccccc21)Nc1ccc(F)cc1 -15.4%
O=C(CN1CCNCC1)NC1CCCCC1 -12.4%
CC(=O)NCCNC(=O)CCCc1nnc2n(C)c(=O)c3sccc3n12 -9.82%
COc1ccc(CNC(=O)c2cc3cc(C)ccc3n2C)cc1 -13%
Cc1ccc(-n2c(=O)c3c(c4cc(C)ccc4n3C)n(CC(=O)NCc3ccccc3Cl)c2=O)cc1 2.92%
CC(Nc1ccc(-c2nc(-c3ccncc3)no2)cc1[N+](=O)[O-])c1ccccc1 (stereo not given) 12.1%
CCCCN(CCCC)C(=O)CN(C)S(=O)(=O)c1ccc2c(c1)c(=O)n(C)c(=O)n2C -5.58%
O=C(NCc1ccccc1Br)c1ccc2nc(N3CCCCC3)sc2c1 -2.42%
Cc1sc2c(c1C)c(=O)n(CCc1ccccc1)c(=O)n2Cc1cccc(F)c1 2.81%
CC(=O)Nc1c(C)nn(-c2ccccc2)c1N1CCC(C(=O)NCc2ccc(Cl)cc2)CC1 -3.16%
Cc1cc(C)cc(N2CC(c3nc(-c4ccccc4C)no3)CC2=O)c1 (stereo not given) -4.07%
CCOC(=O)c1ccc(NC(=O)CN(c2ccc(C)cc2)S(=O)(=O)c2c(C)noc2C)cc1 -7.08%
Cc1nc2c(C(=O)NCCc3ccc(Cl)cc3)cnn2c(C)c1Cc1c(F)cccc1Cl -15.3%
Cc1cccc(NC(=O)Cn2c(=O)n(-c3ccccc3Cl)c(=O)c3c(C)c(C(=O)N(C)C)sc32)c1 -1.67%
CCOC(=O)c1ccc(CN(Cc2ccccc2)S(=O)(=O)c2ccc(C)cc2)cc1 -5.61%
COc1ccc(CCC(=O)NC2CC(=O)N(c3ccc(C)cc3)C2)cc1 (stereo not given) -7.52%
CCCCOC(=O)c1ccc(Nc2ncnc3[nH]ncc23)cc1 -21.5%
Cc1cccc(C(=O)Nc2ccc(-c3nc4ccccc4s3)cc2Cl)c1 -14.3%
COc1ccc2oc(=O)cc(CN3CCN(c4ccc(F)cc4)CC3)c2c1 -39.7%
CCCCNC(=O)C(CC)Sc1nnc(-c2cccc(F)c2)c(-c2cccc(F)c2)n1 (stereo not given) -7.59%
Cc1ccccc1S(=O)Cc1ccc(C(=O)N2CCN(c3cccc(C)c3C)CC2)o1 (stereo not given) -8.09%
Cc1ccc2onc(CC(=O)N3CCN(c4ccc(F)cc4)CC3)c2c1 -8.13%
CC(C)CC(=O)N1c2nc(C(C)C)nn2C2(CCCCC2)[C@@H]2CCCC[C@@H]21 -11.7%
Cc1ccc(-c2c(CN3CCN(c4cccc(C)c4)C(C)C3)csc2C)cc1 (stereo not given) -10.8%
Cc1cc(C)c(NC(=O)Cn2cc(S(=O)(=O)Cc3ccccc3F)c3ccccc32)c(C)c1 -0.167%
Cc1c(Cl)cccc1NC(=O)CSc1ncc2c(n1)-c1ccccc1N(C)S2(=O)=O -8.35%
CN(CCCNC(=O)c1cc2c(Cl)nc3ccccc3c2s1)Cc1ccccc1 -19.2%
CCOc1ccc(CCNC(=O)c2cnc3sc(N(CC)CC)nn3c2=O)cc1OCC 8.55%
Cc1cccc(C)c1OCC(=O)Nc1ncn[nH]1 -14.8%
CCN(CC)CCNC(=O)c1c(C)oc2ncnc(N3CCOCC3)c12 -3.56%
COC(=O)/C=C\C(=O)OC -11.1%
COC(=O)c1c(NC(=O)c2cc3ccccc3c(=O)o2)sc2c1CCCC2 -18.2%
O=C(NCCc1ccccc1)c1ccc2c(c1)N(Cc1ccc(F)cc1)C(=O)c1ccccc1S2(=O)=O -8.35%
CC(C)c1ccc(NC(=O)c2cc3sc(Cl)cc3n2C)cc1 -4.06%
Cc1cccc(N(CC(O)Cn2c3ccccc3c3ccccc32)S(=O)(=O)c2ccc(F)cc2)c1 (stereo not given) -13.7%
COc1ccc(CCNC(=O)c2ccc(Nc3nc4ccccc4n4nnnc34)cc2)cc1OC 2.36%
CC(=O)c1cccc(NC(=O)C(C)n2c(=O)cc(C)c3c(C)nn(-c4ccccc4)c32)c1 (stereo not given) -15.5%
COc1ccc(NC(=O)Cn2nnc(C(=O)NCCc3ccccc3)c2N)cc1 -10%
COc1ccccc1NC(=O)N(Cc1nnc2n1CCCCC2)c1ccc(F)cc1 -9.57%
COc1ccc(OC)c(CNS(=O)(=O)c2ccc3c(c2)CCCN3C(C)=O)c1 -9.88%
CCOc1ccc(NC(=O)c2c(NCc3cccnc3)sc3c2CCCC3)cc1 -11.9%
O=S(=O)(Nc1ccc(Br)cc1F)c1ccc2nc(-c3ccccc3)[nH]c2c1 2.66%
COc1cccc(N2CCN(C(=O)c3cccc(-n4c(C)nc5cccnc54)c3)CC2)c1 -15.8%
CCOC(=O)c1ccc(CN(Cc2ccc(F)cc2)S(=O)(=O)c2ccc(F)c(C(=O)Nc3ccc(Cl)cc3F)c2)cc1 -6.77%
Cc1cc(C)cc(NC(=O)N2CCC3(CC2)Oc2ccccc2C(=O)N3Cc2ccccc2F)c1 -21%
O=C(CCS(=O)(=O)c1cccc2nonc12)Nc1c(F)cccc1F -21.3%
CC1CCc2c(sc3nc(-c4cc5cc(Br)ccc5oc4=O)[nH]c(=O)c23)C1 (stereo not given) -19.8%
COc1ccc(-c2nnc(SCC(=O)Nc3cccc(C(F)(F)F)c3)nc2-c2ccc(OC)cc2)cc1 -5.99%
COc1ccc(CCn2c(=O)c3cccnc3n(CC(=O)Nc3ccc(C)c(F)c3)c2=O)cc1OC -20.3%
C=Cc1ccc(Cn2c(C(=O)O)c(CNC3CCCCC3)c3ccc(C)cc32)cc1 -1.01%
O=C(COc1ccccc1)NCCc1csc(-c2ccc(Cl)cc2)n1 -5.57%
COc1cccc(Cn2c(CNS(=O)(=O)c3ccc(F)c(Cl)c3)nc3cccnc32)c1 -0.664%
O=C(c1ccc2c(c1)OCCO2)N(Cc1cccnc1)c1nc2c(Cl)cccc2s1 -33.5%
CCOc1ccc(OCC)c(NC(=O)C2CCN(S(=O)(=O)c3c(C)noc3/C=C/c3ccccc3F)CC2)c1 -3.74%
CC(C)COc1ccc(C(=O)Nc2cc3nn(-c4ccccc4)nc3cc2Cl)cc1 -9.32%
CCc1nn2c(=O)cc(COc3ccc(/C=C(\C#N)C(=O)Nc4ccc(F)cc4)cc3OC)nc2s1 -6.32%
CN1C(=O)Cc2cc(S(=O)(=O)N3CCN(c4ccc(Cl)cc4)CC3)ccc21 -13.2%
CCOC(=O)c1[nH]c2c(c1Cc1ccccc1C)C(=O)CC(c1cc(OC)ccc1OC)C2 (stereo not given) -19.7%
CCOc1ccccc1CNC(=O)c1cc(-c2ccc(Cl)s2)nc2ccccc12 -9.26%
CCOC(=O)c1ccc(NC(=O)C2CCN(S(=O)(=O)c3ccc4c(c3)CCCC(=O)N4)CC2)cc1 -36.7%
CCn1c2ccccc2c2nnc(SCC(=O)Nc3ccccc3OC)nc21 -2.31%
CCc1ccc(NC(=O)Cn2c(=O)n(CCC(=O)N3CCc4ccccc4C3)c(=O)c3ccccc32)cc1 -5.84%
O=S(=O)(NCC(c1cccs1)S(=O)(=O)c1ccccc1)c1ccc(F)cc1 (stereo not given) -13%
COc1ccc(C(=O)c2cn(Cc3ccccc3F)c3cc4c(cc3c2=O)OCO4)cc1 -2.54%
O=c1cc(-c2ccccc2)n2c(SCc3ccc(Cl)cc3)nnc2[nH]1 -17.6%
CCOC(=O)c1ccc(N2C(=O)c3n[nH]c(C)c3C2c2cccc(Br)c2)cc1 (stereo not given) -9.68%
COc1ccc(CNC(=O)Cn2nnc(-c3ccc(C(F)(F)F)cc3)n2)cc1 -6.66%
CC(C)C(=O)NCC(c1ccc2c(c1)OCO2)N1CCN(c2ccccc2F)CC1 (stereo not given) -7.2%
COc1ccc(-n2c3c(cc(-c4nc(-c5ccc(C)cc5)cs4)c2=O)C(=O)CC(C)(C)C3)cc1 -15.6%
COc1ccccc1C(=O)Nc1ccc2oc(-c3cccc(Cl)c3Cl)nc2c1 7.85%
COc1ccc(C2C(C(N)=O)=C(C)Nc3nc(SCc4ccccc4Cl)nn32)cc1OC (stereo not given) 18.3%
CCOc1ccc(C(=O)NCc2nc3cccnc3n2Cc2ccc(F)cc2)cc1OCC -13%
Cc1ccc2nc(N3CCC(C(=O)N4CCN(c5cccc(C)c5C)CC4)CC3)[nH]c2c1 3.88%
O=c1[nH]cnc2c1ncn2[C@@H]1O[C@H](CO)[C@@H](O)[C@H]1O -14.1%
Cc1sc2c(c1C)c(=O)n(-c1ccc(Cl)cc1)c(=O)n2Cc1cc(=O)n2ccccc2n1 -10.9%
CC1CCCN(C(=O)c2cc3c(=O)n(C)c4ccccc4c3s2)C1 (stereo not given) -13%
O=C(NCc1ccco1)c1ccc(Cn2c(SCc3ccc(F)cc3)nc3cccnc32)cc1 7.22%
Cc1ccc(CNC(=O)c2nc(SCc3ccccc3F)ncc2Cl)cc1 -2.99%
CCOC(=O)c1ccccc1NC(=O)CSc1nc2ccncc2[nH]1 -13.3%
CCCN(Cc1cccs1)C(=O)Nc1ccc(OCC)cc1 -8.22%
Cc1cc(C)cc(NC(=O)C(=O)NCC(c2ccc3c(c2)OCO3)N2CCN(C)CC2)c1 (stereo not given) -7.09%
COc1ccc(NC(=O)Cn2c(=O)c(-c3cc(C)ccc3NC(C)=O)nc3ccccc32)c(OC)c1 -5.21%
CCC(=O)Nc1cc(-c2cccc(C)c2)nn1-c1ccccc1 -8.85%
